Laboratory results from PubChem BioAssay AID485344 (National Center for Advancing Translational Sciences (NCATS), 2010).
The whole screen tested about 340,000 compounds, of which about 6,900 (2%) were called active. No stated cut-off is given here; in the data, active means inhibition above about 30%; inactive means below that, where a call was filed. Only a part is listed here, and it is no random draw. Where no call is shown, the source filed none.

biological target: D(2) dopamine receptor (Homo sapiens) (UniProt P14416); test: HTS Assay for Allosteric Antagonists of the Human D2 Dopamine Receptor: Primary Screen for Antagonists; conditions: HEK293 TREx D2 cells, calcium flux, dopamine EC80; at 10 µM; stronger effect = higher value; further: 0% is about no effect
Chain of UniProt P14416 (P14416 whole entry, looked up): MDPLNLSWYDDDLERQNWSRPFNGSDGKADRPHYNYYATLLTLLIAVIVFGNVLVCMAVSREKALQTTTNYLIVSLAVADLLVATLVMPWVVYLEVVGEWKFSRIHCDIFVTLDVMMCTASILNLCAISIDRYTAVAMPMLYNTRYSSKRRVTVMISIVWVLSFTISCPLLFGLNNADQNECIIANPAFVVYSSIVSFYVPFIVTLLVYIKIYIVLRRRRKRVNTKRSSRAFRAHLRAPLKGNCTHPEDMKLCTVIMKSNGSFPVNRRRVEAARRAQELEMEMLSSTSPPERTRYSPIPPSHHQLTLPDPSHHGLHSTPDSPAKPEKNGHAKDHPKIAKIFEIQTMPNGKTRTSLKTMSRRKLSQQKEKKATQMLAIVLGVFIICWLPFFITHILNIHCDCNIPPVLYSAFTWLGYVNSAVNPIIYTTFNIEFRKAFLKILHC
In short: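 Cells plated overnight at 30 C with tetracycline; no-wash calcium dye, 30–90 min RT; 10 s baseline; compound pinned; 180 s read; EC80 dopamine added; another 180 s read.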

Row | SMILES | inhibition
1 | CC(C)(C)Cn1c(=O)[nH]c(=O)c2cc([N+](=O)[O-])cnc21 | active: 35.4%
2 | Cc1cccc(OCCn2c(-c3ccc(Cl)cc3)nc3ccccc3c2=O)c1C | 26.2%
3 | Cc1ccccc1Cn1c2ccccc2c2cnn(CC(=O)NCCc3ccc(Cl)cc3)c(=O)c21 | 7.9%
4 | CCCCNc1nc2ccccc2n1CC(=O)N1CCc2ccccc2C1 | active: 52.9%
5 | Nc1ncc(S(=O)(=O)NCc2ccc(F)cc2)cn1 | 2.3%
6 | O=C(NC1CC(=O)N(c2ccccc2)C1)c1ccc(S(=O)(=O)N2CCCC2)cc1 (stereo unspecified) | 7.72%
7 | Cc1ccc2[nH]c3c(=O)n(CC(=O)N4CCCC(C)C4)ncc3c2c1 (stereo unspecified) | 4.06%
8 | CC(C)c1cccc(C(C)C)c1NS(=O)(=O)c1cccs1 | -22.8%
9 | O=C(Cn1ncc2c3ccccc3n(Cc3cccc(Cl)c3)c2c1=O)N1CCCCCC1 | 5.67%
10 | CCOc1ccc(CCNC(=O)Cn2c(C)c3cnn(-c4ccccc4)c(=O)c3c2C)cc1 | 3.28%
11 | O=C(NCc1ccco1)c1ccc2c(c1)N(Cc1cccc(Cl)c1)C(=O)c1ccccc1S2=O (stereo unspecified) | 0.0231%
12 | CC1(C)CC(=O)C2=C(C1)N(c1ccccc1)C(=O)C2(O)C(F)(F)F (stereo unspecified) | active: 35.6%
13 | CCc1ccc(NC(=O)CC2C(=O)N(c3ccc(Cl)cc3)C(=O)N2C2CCCC2)cc1 (stereo unspecified) | 22.1%
14 | COc1cc(OC)c(NC(=O)CSc2cc(=O)n(C)c3ccc(Cl)cc23)cc1Cl | 10.7%
15 | CCc1c(CN2CCN(c3cccc(C)c3)C(C)C2)csc1C (stereo unspecified) | 6.2%
16 | O=C(NC1CCCCC1)c1ccc2c(c1)N(Cc1cccc(Cl)c1)C(=O)c1ccccc1S2=O (stereo unspecified) | -3.66%
17 | Cc1ccc(S(=O)(=O)NC(=O)Nc2cccc([N+](=O)[O-])c2)cc1 | active: 68.1%
18 | CCN(Cc1ccccc1)C(=O)CCS(=O)(=O)c1ccc2c(c1)CCN2C(C)=O | -4.97%
19 | CCc1ccc(NC(=O)c2sc3nc(C)cc(C)c3c2NC(=O)c2ccccc2OC)cc1 | 12.7%
20 | CCc1ccc(-c2nc(CSCC(=O)NCc3ccc(C)cc3)c(C)o2)cc1 | 3.7%
21 | COc1ccc(CN2CCN(S(=O)(=O)c3ccc(NC(C)=O)cc3)CC2)c(OC)c1OC | -0.191%

Row | SMILES | inhibition
22 | CC(=O)c1cc2c(cc1N/C(=N/S(=O)(=O)c1ccc(F)cc1)c1ccccc1)OCO2 | -0.344%
23 | O=C(NCCCN1CCN(c2ccccc2)CC1)c1cc2c(s1)-c1ccccc1OC2 | 8.77%
24 | Cc1ccccc1Cc1c(C)nc2nc(SCC(=O)NC(C)c3ccccc3)nn2c1C (stereo unspecified) | 5.64%
25 | CCOC(=O)c1c(C)oc2nc(C)nc(NCCCN3CCN(c4cccc(C)c4)C(C)C3)c12 (stereo unspecified) | 3.88%
26 | CCC1CN(C(=O)Nc2cccc3c2CCCC3)c2cc(C)ccc2O1 (stereo unspecified) | -22.5%
27 | O=C(CNC(=O)c1cccs1)N/N=C/c1c(F)cccc1Cl | active: 30.5%
28 | CCCCNC(=O)C1CCN(Cc2nc(-c3ccc(OC)c(OC)c3)oc2C)CC1 | -10.9%
29 | O=C(NCc1ccc(Cl)cc1)C1CCCN(c2ncnc3onc(-c4ccc(F)cc4)c23)C1 (stereo unspecified) | 6.22%
30 | Cc1cccc(NC(=O)c2c(Br)sc3c2CCCC3)c1 | -3.76%
31 | COc1ccccc1N1CCN(C(=O)CSc2nc(-c3ccc(C(C)C)cc3)no2)CC1 | 7.33%
32 | COc1ccc(C2CC(=O)c3c([nH]c(C(=O)OCc4ccccc4)c3C)C2)cc1OC (stereo unspecified) | 5.16%
33 | CCCCNC(=O)CSc1nc2n[nH]c(C)c2c(=N)n1-c1ccccc1CC | 19.4%
34 | CCOc1cc(C2c3c(oc4ccc(F)cc4c3=O)C(=O)N2Cc2ccc(C)cc2)ccc1O (stereo unspecified) | 3%
35 | O=C(COc1ccccc1F)Nc1nnc(S(=O)(=O)N2CCCCCC2)s1 | 20.5%
36 | CCN(CC)c1ccc(NC(=S)NC(=O)Cc2ccccc2)cc1 | active: 77.2%
37 | COc1ccc(NC(=O)C(Cc2ccccc2)n2cccc2)c(OC)c1 (stereo unspecified) | 1.68%
38 | CC(C)CCNC(=O)CSc1nc2ccsc2c(=O)n1Cc1ccccc1Cl | -16.3%
39 | COc1ccc(-c2noc(-c3ccccc3NC(=O)c3cc(OC)c(OC)c(OC)c3)n2)cc1 | 4.06%
40 | O=S(=O)(Nc1nc2n(n1)C(c1ccccc1)C=C(c1ccc(Cl)cc1)N2)c1ccccc1 (stereo unspecified) | 1.09%
41 | Cc1ccc(CNC(=O)CN(c2cc(C)cc(C)c2)S(=O)(=O)c2c(C)[nH]c(=O)[nH]c2=O)cc1 | 1.79%
42 | Cc1ccc(N2CCN(C(=O)c3nn(C)c4c3CSc3ccccc3-4)CC2C)cc1 (stereo unspecified) | 3.66%

Row | SMILES | inhibition
43 | CCOc1ccc(-c2ccc(CO)o2)cc1N | -4.96%
44 | CCc1cccc(NC(=O)CCS(=O)(=O)c2ccc(C)cc2)c1 | 22%
45 | CCc1ccc(C2c3c(n[nH]c3C)C(=O)N2c2ccc(C)cc2)cc1 (stereo unspecified) | -5.08%
46 | O=C(NC1CCCC1)c1ccc2c(c1)N(Cc1ccc(F)cc1)C(=O)c1ccccc1S2 | -2.49%
47 | CCN1C(=O)CC(C(=O)Nc2ccc(OC)cc2)SC1=Nc1ccc(C)c(C)c1 (stereo unspecified) | 4.81%
48 | O=C(NCCC1=CCCCC1)c1ccc2c(c1)N(Cc1ccccc1)C(=O)c1ccccc1S2(=O)=O | -15.1%
49 | CCOC(=O)c1noc2ncn(CC(=O)O)c(=O)c12 | -5.53%
50 | O=C(Cn1cc(SCc2ccccc2Cl)c2ccccc21)N1CCCCCC1 | 10.7%
51 | COc1ccc(OC)c(CNS(=O)(=O)c2ccc(-c3cc(C(F)(F)F)on3)s2)c1 | 4.63%
52 | O=C(NCCN1C(=O)S/C(=C\c2ccccc2)C1=O)C1CCN(S(=O)(=O)c2cccs2)CC1 | active: 33.4%
53 | COc1ccc(NC(=O)C(c2ccc(OC)cc2)N(C)C(=O)CNC(C)=O)cc1 (stereo unspecified) | active: 38.2%
54 | O=C(Nc1ccc2c(c1)N(C1CCCC1)C(=O)c1ccccc1S2)c1ccccc1 | -10.8%
55 | COc1ccc(F)cc1C(=O)C1CCCN(Cc2ccc(Oc3ncccn3)cc2)C1 (stereo unspecified) | active: 48.9%
56 | Cc1ccc(SCC(=O)Nc2ccc3oc(-c4cccc(C)c4)nc3c2)cc1 | -0.125%
57 | COc1ccc(CCNC(=O)C(=O)NCC(c2cccs2)S(=O)(=O)c2ccccc2)cc1 (stereo unspecified) | 17.7%
58 | COc1cccc(-c2nc(CS(=O)CC(=O)N3CCN(c4cccc(C(F)(F)F)c4)CC3)c(C)o2)c1 (stereo unspecified) | 16%
59 | Cc1ccc(Cl)cc1NC(=O)CCS(=O)(=O)c1ccc(Br)s1 | 3.88%
60 | Cc1ccc(Cn2c(=O)c3ccccc3n3c(-c4ccccc4)nnc23)cc1 | 12%
61 | COc1ccc(CCN(Cc2cc3cccc(C)c3[nH]c2=O)C(=O)NC2CCCCC2)cc1OC | active: 31.3%
